Paper PMC9513469
No constants are given. Whether binding was seen depends on the method and setting. For part of these data: Binding seen in cells or lysates may run through a third protein. Some binding calls cover weakened binding; strength is not graded here. For part of these data: Tags and fused reporters may be left off the sequences shown.

Chains of the proteins cited; added tags and fusions are not shown.
UniProt Q94BT6: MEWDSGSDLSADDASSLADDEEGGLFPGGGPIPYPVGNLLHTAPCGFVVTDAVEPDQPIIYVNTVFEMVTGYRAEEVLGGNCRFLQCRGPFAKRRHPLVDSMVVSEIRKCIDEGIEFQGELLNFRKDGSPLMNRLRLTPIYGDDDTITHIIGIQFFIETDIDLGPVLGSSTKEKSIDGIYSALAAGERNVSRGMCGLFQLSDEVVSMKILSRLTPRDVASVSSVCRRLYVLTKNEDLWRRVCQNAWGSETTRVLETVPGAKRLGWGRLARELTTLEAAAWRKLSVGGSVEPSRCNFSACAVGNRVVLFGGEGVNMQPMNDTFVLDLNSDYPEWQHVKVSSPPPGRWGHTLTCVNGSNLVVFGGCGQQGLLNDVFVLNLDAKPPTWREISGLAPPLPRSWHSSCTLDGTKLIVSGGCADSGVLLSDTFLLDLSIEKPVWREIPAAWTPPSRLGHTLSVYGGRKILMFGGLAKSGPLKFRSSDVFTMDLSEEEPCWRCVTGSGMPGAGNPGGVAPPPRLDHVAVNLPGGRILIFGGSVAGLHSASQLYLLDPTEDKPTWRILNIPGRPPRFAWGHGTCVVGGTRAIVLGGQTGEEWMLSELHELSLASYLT

Tests used:
[1] = target: T1, middle fragment of CHLH (amino acids 348–1,038) fused to the GAL4 DNA binding domain (Arabidopsis thaliana) (UniProt Q9FNB0); test: two-hybrid; Matchmaker Gal4 system; CHLH fragments in pGBKT7 and ZTL ORF in pGADT7 in yeast AH109; growth on Leu-Trp-His-Ade-deficient medium, 5-7 days at 30°C
T1 sequence: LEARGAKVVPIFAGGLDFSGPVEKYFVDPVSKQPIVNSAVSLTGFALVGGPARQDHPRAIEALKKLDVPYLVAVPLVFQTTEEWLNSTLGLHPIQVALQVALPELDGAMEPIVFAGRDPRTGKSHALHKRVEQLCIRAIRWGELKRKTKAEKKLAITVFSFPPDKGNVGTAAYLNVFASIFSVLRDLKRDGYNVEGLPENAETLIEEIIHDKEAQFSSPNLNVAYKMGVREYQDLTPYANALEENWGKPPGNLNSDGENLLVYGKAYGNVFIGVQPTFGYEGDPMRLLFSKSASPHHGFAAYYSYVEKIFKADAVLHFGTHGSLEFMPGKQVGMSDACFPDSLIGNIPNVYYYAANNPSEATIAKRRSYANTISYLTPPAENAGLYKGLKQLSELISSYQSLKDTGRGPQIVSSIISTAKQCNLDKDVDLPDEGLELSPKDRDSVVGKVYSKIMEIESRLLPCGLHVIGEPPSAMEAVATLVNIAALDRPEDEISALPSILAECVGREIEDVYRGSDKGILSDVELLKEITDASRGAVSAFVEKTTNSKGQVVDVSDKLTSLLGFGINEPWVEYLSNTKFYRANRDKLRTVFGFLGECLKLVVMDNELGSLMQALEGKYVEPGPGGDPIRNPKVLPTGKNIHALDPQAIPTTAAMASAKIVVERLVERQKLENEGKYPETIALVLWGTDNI

[2] = target: T2, C-terminus of CHLH (amino acids 692–1,381) fused to the GAL4 DNA binding domain (Arabidopsis thaliana) (UniProt Q9FNB0); test: as above
T2 sequence: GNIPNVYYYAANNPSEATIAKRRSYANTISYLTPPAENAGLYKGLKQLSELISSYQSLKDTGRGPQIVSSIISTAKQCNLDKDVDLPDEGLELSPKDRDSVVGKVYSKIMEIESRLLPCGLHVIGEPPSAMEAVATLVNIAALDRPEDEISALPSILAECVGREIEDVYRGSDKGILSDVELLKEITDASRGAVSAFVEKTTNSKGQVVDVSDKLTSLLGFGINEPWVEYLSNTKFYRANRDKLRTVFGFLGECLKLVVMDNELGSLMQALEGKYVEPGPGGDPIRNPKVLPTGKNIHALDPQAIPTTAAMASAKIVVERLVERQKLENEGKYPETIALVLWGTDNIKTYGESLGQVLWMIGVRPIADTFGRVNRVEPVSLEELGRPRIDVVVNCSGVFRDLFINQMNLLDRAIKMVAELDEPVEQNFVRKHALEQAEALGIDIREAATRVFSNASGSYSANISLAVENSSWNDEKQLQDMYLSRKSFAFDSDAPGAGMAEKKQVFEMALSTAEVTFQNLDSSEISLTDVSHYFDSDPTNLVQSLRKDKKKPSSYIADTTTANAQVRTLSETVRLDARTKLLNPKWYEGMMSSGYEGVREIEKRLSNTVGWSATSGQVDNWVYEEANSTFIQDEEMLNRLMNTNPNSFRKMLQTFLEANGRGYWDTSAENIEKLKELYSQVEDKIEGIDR

[3] = target: T3, N-terminus of CHLH (amino acids 1–691) fused to the GAL4 DNA binding domain (Arabidopsis thaliana) (UniProt Q9FNB0); test: as above
T3 sequence: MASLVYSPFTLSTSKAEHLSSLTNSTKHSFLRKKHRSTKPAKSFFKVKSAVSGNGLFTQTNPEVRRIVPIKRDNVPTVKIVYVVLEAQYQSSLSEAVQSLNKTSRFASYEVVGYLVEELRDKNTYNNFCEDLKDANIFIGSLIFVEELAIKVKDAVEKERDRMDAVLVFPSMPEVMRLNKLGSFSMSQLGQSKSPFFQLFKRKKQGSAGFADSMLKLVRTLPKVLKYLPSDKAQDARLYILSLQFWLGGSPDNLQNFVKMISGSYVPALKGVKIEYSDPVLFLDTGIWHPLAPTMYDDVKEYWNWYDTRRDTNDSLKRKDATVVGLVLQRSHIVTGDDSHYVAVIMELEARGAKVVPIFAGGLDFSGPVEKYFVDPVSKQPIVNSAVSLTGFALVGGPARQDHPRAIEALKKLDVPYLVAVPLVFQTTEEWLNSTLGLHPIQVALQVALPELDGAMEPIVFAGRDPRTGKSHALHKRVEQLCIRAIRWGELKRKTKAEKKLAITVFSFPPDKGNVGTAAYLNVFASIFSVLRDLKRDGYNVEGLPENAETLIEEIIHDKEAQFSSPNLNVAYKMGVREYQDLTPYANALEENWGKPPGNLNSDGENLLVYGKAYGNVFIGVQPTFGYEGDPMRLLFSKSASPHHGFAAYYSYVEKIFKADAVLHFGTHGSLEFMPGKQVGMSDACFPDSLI

[4] = target: T4, CHLH fused with nLUC (Arabidopsis thaliana) (UniProt Q9FNB0); test: split reporter; firefly luciferase complementation imaging (LCI) in Nicotiana benthamiana leaves; CHLH-nLUC and ZTL-cLUC; with or without 100 μM (±) ABA for 4 h before imaging
T4 sequence: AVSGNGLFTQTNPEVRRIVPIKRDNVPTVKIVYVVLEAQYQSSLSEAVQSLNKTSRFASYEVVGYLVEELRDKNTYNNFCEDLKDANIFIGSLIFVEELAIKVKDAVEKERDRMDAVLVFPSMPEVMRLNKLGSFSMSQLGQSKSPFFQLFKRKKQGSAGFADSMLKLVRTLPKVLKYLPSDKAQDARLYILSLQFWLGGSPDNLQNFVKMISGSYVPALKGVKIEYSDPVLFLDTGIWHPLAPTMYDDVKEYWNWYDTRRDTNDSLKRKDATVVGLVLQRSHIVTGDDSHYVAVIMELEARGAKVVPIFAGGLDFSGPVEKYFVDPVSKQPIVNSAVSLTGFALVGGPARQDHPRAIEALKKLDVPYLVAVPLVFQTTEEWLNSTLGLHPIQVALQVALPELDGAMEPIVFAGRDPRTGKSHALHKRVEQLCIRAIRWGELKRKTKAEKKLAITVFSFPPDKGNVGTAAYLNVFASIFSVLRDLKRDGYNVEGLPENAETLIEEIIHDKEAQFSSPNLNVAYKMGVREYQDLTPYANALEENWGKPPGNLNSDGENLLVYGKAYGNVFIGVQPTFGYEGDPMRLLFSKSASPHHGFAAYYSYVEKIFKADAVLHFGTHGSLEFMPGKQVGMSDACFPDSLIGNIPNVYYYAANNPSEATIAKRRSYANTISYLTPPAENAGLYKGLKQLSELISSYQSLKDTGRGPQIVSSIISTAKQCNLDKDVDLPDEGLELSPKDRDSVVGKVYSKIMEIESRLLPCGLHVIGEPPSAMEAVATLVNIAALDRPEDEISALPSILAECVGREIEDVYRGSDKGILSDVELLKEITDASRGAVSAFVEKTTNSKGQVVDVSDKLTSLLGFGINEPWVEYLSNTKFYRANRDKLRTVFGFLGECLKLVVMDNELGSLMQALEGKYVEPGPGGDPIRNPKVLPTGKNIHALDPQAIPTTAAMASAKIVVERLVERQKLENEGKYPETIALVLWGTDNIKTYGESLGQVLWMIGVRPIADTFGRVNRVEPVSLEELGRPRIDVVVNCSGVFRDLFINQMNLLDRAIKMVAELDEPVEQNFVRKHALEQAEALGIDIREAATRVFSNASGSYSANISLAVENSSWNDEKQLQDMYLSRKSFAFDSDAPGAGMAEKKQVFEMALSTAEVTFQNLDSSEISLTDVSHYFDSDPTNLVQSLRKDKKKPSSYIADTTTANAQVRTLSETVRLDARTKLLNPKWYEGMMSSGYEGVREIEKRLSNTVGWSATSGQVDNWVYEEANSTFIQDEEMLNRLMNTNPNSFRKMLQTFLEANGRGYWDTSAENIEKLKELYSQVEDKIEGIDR

[5] = target: T5, CHLH/ABAR (Mg-chelatase H subunit/putative ABA receptor), endogenous (Arabidopsis thaliana (endogenous in ZTL-ox plants)) (UniProt Q9FNB0); test: co-IP; protein extracts of ZTL-ox plants immunoprecipitated with anti-CHLH antibody; ZTL-YFP detected with anti-GFP
T5 sequence: T4 sequence

[6] = target: T6, full-length CHLH with a GST tag at the N-terminus (Arabidopsis thaliana) (UniProt Q9FNB0); test: pull-down; GST-tagged full-length CHLH and MBP-tagged full-length ZTL, purified recombinant proteins, in vitro; who was held is not told; both purified
T6 sequence: T4 sequence

Substance: ZEITLUPE (ZTL) ORF in pGADT7 (from UniProt Q94BT6 1-609)
- binding [1]: binds
- binding [2]: binds
- binding [3]: no binding

Substance: ZTL fused with cLUC (from UniProt Q94BT6 1-609)
- binding [4]: binds

Substance: ZTL with a YFP tag at the C-terminus, in ZTL-overexpressing plants (ZTL-ox) (from UniProt Q94BT6 1-609)
- binding [5]: binds

Substance: full-length ZTL with an MBP tag at the N-terminus (from UniProt Q94BT6 1-609)
- binding [6]: binds
